Experimental data as given in PubChem BioAssay AID488969 (Vanderbilt High Throughput Screening Facility, 2010).
Over roughly 110,000 compounds, “z-score” has its median near -0.1; the highest 2% begin near 2. The list shows a part of the results. The source made the active and inactive calls.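 How the source made its calls: active means z-score in the third read window above 3 or below -3; inactive means the rest.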

target: Metabotropic glutamate receptor 8 (Rattus norvegicus) (UniProt P70579); experiment: rat mGluR8 modulators via GIRK flux, primary screen, cell-based, thallium flux, HTS (AID 488969); conditions: HEK293 rat mGluR8, GIRK (G protein-gated inwardly rectifying potassium channel) thallium flux, FluoZin2; at 10 µM; stronger effect = higher value; submaximal glutamate (EC20) added with thallium
UniProt P70579, sequence (P70579 whole entry, looked up): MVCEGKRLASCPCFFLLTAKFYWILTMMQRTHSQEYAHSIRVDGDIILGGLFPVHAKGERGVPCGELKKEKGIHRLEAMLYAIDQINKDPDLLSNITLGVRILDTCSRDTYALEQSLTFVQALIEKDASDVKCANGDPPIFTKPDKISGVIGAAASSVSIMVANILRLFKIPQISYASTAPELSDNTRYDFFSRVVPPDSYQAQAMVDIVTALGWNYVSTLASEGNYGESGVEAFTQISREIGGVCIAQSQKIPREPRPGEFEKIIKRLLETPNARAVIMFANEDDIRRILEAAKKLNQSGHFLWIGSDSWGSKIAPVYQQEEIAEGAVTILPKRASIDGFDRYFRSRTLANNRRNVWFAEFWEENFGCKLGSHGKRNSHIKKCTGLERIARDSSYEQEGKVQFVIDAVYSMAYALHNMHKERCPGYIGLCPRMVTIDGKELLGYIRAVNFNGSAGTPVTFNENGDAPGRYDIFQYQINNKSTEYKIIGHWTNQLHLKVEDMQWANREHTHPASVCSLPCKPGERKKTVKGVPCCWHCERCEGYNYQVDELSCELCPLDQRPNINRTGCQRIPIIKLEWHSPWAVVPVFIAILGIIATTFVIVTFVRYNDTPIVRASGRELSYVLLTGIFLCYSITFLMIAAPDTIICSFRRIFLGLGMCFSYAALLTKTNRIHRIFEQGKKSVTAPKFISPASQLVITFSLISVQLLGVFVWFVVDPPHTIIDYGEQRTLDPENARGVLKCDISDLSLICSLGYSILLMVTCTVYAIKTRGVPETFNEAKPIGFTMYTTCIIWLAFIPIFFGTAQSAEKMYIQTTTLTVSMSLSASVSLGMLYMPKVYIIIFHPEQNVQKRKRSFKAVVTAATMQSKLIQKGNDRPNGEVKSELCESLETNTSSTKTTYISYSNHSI

SMILES	z-score
CCCSc1cc(N2CCCC2)nc(-c2ccccc2)n1	-0.845
CC(=O)Nc1ccc(N2CCN(Cc3ccccc3F)CC2)cc1	-0.196
CCSCCNC(=O)c1cc(-n2cnnc2)ccc1Cl	-0.0565
Cc1ccc(C)c(Cn2c(CO)nc3ccccc32)c1	-0.259
O=c1c(-c2ccnn2-c2cccc(Cl)c2)cnc2n1CCS2	0.552
CCOc1ccc(-n2cnnn2)cc1S(=O)(=O)NCCc1ccc(OC)c(OC)c1	0.0271
O=C(CSc1ccccc1)Nc1nc2ccccc2[nH]1	-0.269
COCc1nnc(NC(=O)c2ccc(S(=O)(=O)N(C)C3CCCCC3)cc2)o1	-0.626
COC(=O)C1=CN(CCCN2CCCC2=O)C=C(C(=O)OC)C1c1ccccc1C(F)(F)F	0.428
CC(C)n1cc(C(=O)c2cc(Br)ccc2O)cc(C#N)c1=O	-0.207
CCOC(=O)N1CCN(C(=O)c2ccc(CNS(=O)(=O)c3ccc(OC)cc3)cc2)CC1	-0.593
COc1ccc(NC(=S)N2CCN(C/C=C/c3ccccc3)CC2)cc1	-0.821
COC(=O)c1ccccc1NC(=O)Cn1c(CCC(=O)O)ccc1-c1cccs1	0.0362
Cc1ccc2c(c1)c1c3n2CCN(C(=O)Cn2c(-c4ccccc4)noc2=O)C3CCC1 (stereo unspecified)	-0.365
CCC(CC)C(=O)Nc1cccc(S(=O)(=O)c2cccc(NC(=O)C(CC)CC)c2)c1	-0.161
COc1ccc(NC(=O)C(=O)N/N=C/c2cccnc2)c(OC)c1	-0.23
CCOc1cc(C2C(C(=O)OC)=CN(C3CCCC3)C=C2C(=O)OC)cc(Br)c1O	0.183
CCCOc1ccccc1NC(=O)c1ccc(N)cc1	-0.341
Cc1cccc(-n2c(SCc3cc(=O)n4ccsc4n3)nc3ccccc3c2=O)c1	-0.276
Cc1ccc(C)c(NC(=O)CS(=O)(=O)c2cn(C)c3ccccc23)c1	0.61
O=C(CS(=O)(=O)Cc1ccccc1)NCC1CCCO1 (stereo unspecified)	-0.164
Cc1ccccc1CSc1nc2ccccc2c(=O)[nH]1	-0.246
CN1CCN(C(=O)/C=C/c2ccc([N+](=O)[O-])cc2)CC1	-0.07

SMILES	z-score
CCOc1ncccc1C(=O)OCc1c(Cl)cccc1Cl	-0.0658
O=C(Oc1ccc(-c2cnc3ccccc3n2)cc1)c1cccc([N+](=O)[O-])c1	-0.131
CCc1ccccc1NC(=O)CN(C)S(=O)(=O)c1ccc2c(c1)c(=O)n(C)c(=O)n2C	-0.094
COc1ccc(OCCN2CCN(C3CC(=O)N(CCC(C)C)C3=O)CC2)cc1 (stereo unspecified)	-0.363
COCCCN(C(=S)Nc1ccc(C)cc1Cl)C(C)c1ccncc1 (stereo unspecified)	0.722
CCCSc1nnc(-c2cnn(-c3ccccc3)c2-n2cccc2)n1C	-0.0552
COc1ccc(NC(=S)NCCCN2CCN(C3CCCCC3)CC2)cc1	0.036
CCCc1c(C(=O)OCC)[nH]c2c1C(=O)CCC2	-0.0909
CCSc1nnc([C@H](Cc2c[nH]c3ccccc23)NC(=O)OC(C)(C)C)o1	-0.445
COc1ccc(OC)c(NC(=O)c2ccc(NS(=O)(=O)c3c(C)noc3C)cc2)c1	0.771
CCOc1ccc(NC(=O)COC(=O)Cc2ccc(S(=O)(=O)N3CCOCC3)s2)cc1	-0.587
O=C(CN1CCOCC1)NCC12CC3CC(CC(C3)C1)C2	0.764
COc1ccc(Oc2nc(C)cc(C)c2C#N)cc1	0.658
Cc1nn(CC(=O)Nc2nnc(CC(=O)N3CCCC3)s2)c(=O)c2ccccc12	0.857
CCCOc1ccc(-c2csc(NC(=O)CN3C(=O)CCC3=O)n2)cc1	-0.00662
Clc1ccc(CCNc2nc3ccccc3n3nnnc23)cc1	-0.195
COC(=O)c1ccc(NC(=O)C(C)Oc2ccccc2)cc1 (stereo unspecified)	0.0469
CC1CCCCN1CC(=O)Nc1ccc(Oc2ccccc2)cc1 (stereo unspecified)	active: 3.58
CCCn1c(SCC(=O)O)nc2ccccc21	-0.154
Cc1c(Cl)cccc1NC(=S)NC1CC1	0.237
Cc1c(-n2c(=S)[nH]c3ccccc3c2=O)c(=O)n(-c2ccccc2)n1C	0.153
Cc1cc(CSc2ccccc2)ccc1NC(=O)COc1ccccc1C	-0.222
CCOc1ccc(Br)cc1S(=O)(=O)N1CCCC1	0.314

SMILES	z-score
CC(C)(C)c1nnc(N/N=C/c2cc(Br)ccc2O)n(N)c1=O	0.123
Cc1ccccc1NS(=O)(=O)c1ccc2[nH]cc(C(=O)N(C)Cc3ccco3)c(=O)c2c1	0.282
CC(=O)c1ccc(NC(=O)Nc2ccc(NS(=O)(=O)c3ccc(C)cc3)cc2)cc1	-0.151
CCOC(=O)c1cc(-c2nnc(-c3ccc(Cl)cc3)o2)c(C)nc1C	-0.0573
CCCC(=O)Nc1nc2c(c(=O)[nH]1)CCCC2	-0.142
CCSc1nc(N)c2c3c(sc2n1)CCC3	-0.615
Cc1cccc2sc(NC(=O)[C@@H]3CCCN3C(=O)c3cccs3)nc12	0.0455
CCCCNC(=S)NNC(=O)c1csc(CC)c1	-0.0512
Cc1cccc(N(C)C(=O)c2coc(=O)c3ccccc23)c1	-0.042
Cc1c(OCc2ccc(C(=O)O)o2)ccc2c3c(c(=O)oc12)CCC3	-0.283
Cc1c(N=Cc2ccc(Br)s2)cccc1[N+](=O)[O-]	0.237
NS(=O)(=O)c1ccc(CNC(=S)NCc2ccc(Cl)cc2)cc1	-0.18
CCOC(=O)c1ccccc1NC(=O)CSc1nnc(C(C)C)n1CC	-0.379
CCOC(=O)c1sc(NC(=O)CSc2nc(C)cc(C)c2C#N)c(C#N)c1C	-0.401
CCOC(=O)C1=NOC(CNC(=O)C2=NOC(CNC(=O)c3c(-c4ccccc4Cl)noc3C)C2)C1 (stereo unspecified)	-0.0386
CC(=O)CSc1nnc(-c2cnccn2)n1-c1ccccc1	0.0901
N#CC1=C(N)Oc2n[nH]c(-c3ccc(F)cc3)c2C1c1cccc(OC(=O)N2CCOCC2)c1 (stereo unspecified)	0.312
COc1cccc(NC(=O)Cn2nc(Cc3cccnc3)c3ccccc3c2=O)c1	-0.225
COc1ccc(C(=O)NCC(=O)NCC2COc3ccccc3O2)cc1 (stereo unspecified)	1
CC(C)(C)CC(=O)NC(=S)Nc1ccccc1C(F)(F)F	0.863
COc1cc2c(cc1OC)C1=C(C#N)COCN1CC2	-0.655
COC(=O)c1ccc(NC(=O)CSCc2ccc(C)cc2)cc1	-0.584
CC(C)C(C(=O)Nc1ccc2c(c1)OCCO2)N1C(=O)c2ccccc2C1=O (stereo unspecified)	-0.604

SMILES	z-score
Cc1ccc(OCCn2nc3ccccc3n2)c(C)c1	0.049
O=C(Nc1ccc(Cl)c(Cl)c1)C1CC(=O)N(c2ccc(Br)cc2)C1 (stereo unspecified)	-0.168
Cc1ccc2nc(-c3ccccc3)nc(SC(C)C(=O)NCc3cccs3)c2c1 (stereo unspecified)	-0.0563
Cc1ccc(S(=O)(=O)NC(C)C(c2cccs2)N2CCN(C)CC2)cc1 (stereo unspecified)	1.04
O=C(Nc1cccc(F)c1)/C(=C\c1ccco1)NC(=O)c1cccs1	0.213
CCOc1ccc(C=NC23CN4CN(CN(C4)C2)C3)cc1	-0.226
CCOc1cc2[nH]c(=O)n(Cc3ccccc3)c(=O)c2cc1OCC	-0.0356
O=C(NC1CCCCC1)C1CC(=O)N(CCc2ccccc2)C1 (stereo unspecified)	-0.403
CCOC(=O)c1c(-c2cccc([N+](=O)[O-])c2)csc1NC(=O)C1CC1	0.00633
O=c1[nH]c2ccccc2c(=O)n1CCCO	0.573
CC(C)(CNC(=O)c1ccc([N+](=O)[O-])c(Cl)c1)CNC(=O)c1ccc([N+](=O)[O-])c(Cl)c1	-0.409
COc1ccc(C2Nc3ccccc3C(=O)N2Cc2ccccc2)cc1Cn1nnc2ccccc21 (stereo unspecified)	-0.344
O=c1cc(-c2ccc(Cl)c(Cl)c2)[nH][nH]1	-0.0977
CN(C)S(=O)(=O)c1ccc(C(=O)Nc2nnc(Cc3ccccc3)s2)cc1	-0.271
O=C(O)CN1C(=O)C2(OCCCO2)c2ccccc21	0.0511
CCCCOc1ccc(C(=O)N/C(=C\c2cccc([N+](=O)[O-])c2)C(=O)OC(C)C)cc1	0.536
CC(C)CNc1oc(-c2ccc(F)cc2)nc1C#N	0.561
O=c1c2ccccc2nc(SCc2ccccc2F)n1C1CCCC1	0.17
Cc1cc(=O)c2ccccc2s1	-0.104
O=C(O)CCCCCNc1ccc2nsnc2c1[N+](=O)[O-]	0.14
CCn1cc(Br)c(C(=O)Nc2ccc(C(=O)OC(C)C)cc2)n1	-0.084
Cn1c(=O)c([N+](=O)[O-])c(NCC(O)c2ccccc2)c2ccccc21 (stereo unspecified)	0.0997
Cc1nc(NC(C)C(=O)O)c2nc(C)oc2n1 (stereo unspecified)	-0.0905

SMILES	z-score
Cc1nn(C(=O)c2cccs2)c(C)c1CN1C(=O)c2ccccc2C1=O	0.128
CCCCC(=O)Nc1nc(C)c(-c2csc(Nc3ccc(Cl)cc3)n2)s1	0.158
CC(C)c1nc(SCC(=O)NCc2ccccc2)n[nH]1	-0.0957
CCOC(=O)N1CCC(Nc2c(NCCN3CCN(c4cccc(Cl)c4)CC3)c(=O)c2=O)CC1	0.124
COc1cc(C(=O)Nc2sc3c(c2C#N)CCN(C(C)=O)C3)cc(OC)c1OC	-0.727
O=C(c1ccco1)N1CCN(C(c2ccccc2Cl)c2nnnn2Cc2ccco2)CC1 (stereo unspecified)	-0.138
CCC1CCCCN1C(=O)CCCOc1ccccc1 (stereo unspecified)	-0.368
Cc1ccccc1NC(=O)N(CCc1nc2ccccc2[nH]1)Cc1ccccc1	-0.292
Cc1ccc(S(=O)(=O)N(CC(O)CN2CCCCC2)c2ccccc2)cc1 (stereo unspecified)	-0.627
O=C(Nc1ccon1)c1ccccc1F	0.0509
Cc1cccc(NS(=O)(=O)c2cc(C(=O)N3CCCC3)ccc2Cl)c1	0.379
O=C(CSc1ccccc1)NCCSCc1ccccc1	-0.635
N/C(=N\OC(=O)c1cccc2ccccc12)c1ccc(Br)cc1	0.158
Cc1ccc(-c2c3c(nc4sc(C(N)=O)c(N)c24)CCC3)cc1	0.883
COC(=O)COc1ccc(=O)n(-c2ccccc2)n1	-0.129
Cc1ccc(C)c(N2CCN(C(=O)c3cc4ccccn4n3)CC2)c1	-1.77
COc1ccc(C(=O)CSc2ncn[nH]2)cc1OC	0.0627
COc1cc(/C=N/NC(=O)C(C)Nc2n[nH]c(=O)[nH]c2=O)cc(OC)c1O (stereo unspecified)	-0.347
O=C(Nc1cccc(S(=O)(=O)N2CCCCC2)c1)c1ccccc1NS(=O)(=O)c1ccc(F)cc1	0.0356
